# Laboratory results as given in the supplement of paper PMC4166925.
# ± gives the standard deviation of the averaged measurements. The full ranking holds about 33,000 sequences; the median of “E-score (dimensionless, -0.5 to 0.5)” is about -0.046, and the highest 2% start at about 0.36. This is one part of the list.
# System: T1, SpTbr T-box DNA-binding domain (GST fusion)
# T1 sequence: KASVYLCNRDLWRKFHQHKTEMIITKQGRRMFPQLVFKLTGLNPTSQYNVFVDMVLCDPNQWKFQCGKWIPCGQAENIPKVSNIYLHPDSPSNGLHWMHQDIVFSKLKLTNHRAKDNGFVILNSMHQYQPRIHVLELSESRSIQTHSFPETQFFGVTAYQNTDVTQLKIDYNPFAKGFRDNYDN
# Experiment: PBM E-score of 8-mer (E-score (dimensionless, -0.5 to 0.5)); Tbr is Tbrain of the sea star Patiria miniata (Pm) or the sea urchin Strongylocentrotus purpuratus (Sp); higher = stronger binding preference; most listed sequences are background and not binding sites
# Details: the construct has about 5 more residues each side
# Protocol: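 Universal protein-binding microarray (Agilent AMADID 016060, 60-bp probes with a 35-bp variable region) incubated with 200 nM GST-fused Strongylocentrotus purpuratus Tbr T-box DNA-binding domain (residues 362-554) in PBS pH 7.5. Scored for every ungapped 8-mer (given with its reverse complement) as E-score (range -0.5 to 0.5; >0.45 counts as bound) and Z-score of median probe intensity. Two replicate arrays (datasets 1 and 2).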
# 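Note: protein at 200 nM in PBS on universal double-stranded arrays.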
row,Sequence,PBM E-score of 8-mer
1,AAAAACCT,-0.128 ± 0.07
2,CTGCCCGA,-0.109 ± 0.056
3,AGTATTAG,0.00194 ± 0.014
4,CGGTGACC,0.0338 ± 0.011
5,AGCAACCA,-0.0779 ± 0.012
6,AAATCGGC,-0.171 ± 0.029
7,ATCAGCCC,-0.252 ± 0.0045
8,CCATATTC,0.00652 ± 0.029
9,CAATGTCC,-0.209 ± 0.016
10,ACCTTCGG,-0.00505 ± 0.058
11,GTGTTTCA,0.186 ± 0.021
12,AAAGGAAA,-0.08558 ± 0.00078
13,ATGTAACA,0.083 ± 0.054
14,CTCGGCGA,-0.0214 ± 0.13
15,GCTATAAC,0.0717 ± 0.048
16,AGGAAGGC,-0.0481 ± 0.024
17,CCCCACCC,0.104 ± 0.14
18,CCCTACGC,-0.064 ± 0.012
19,CTTCAGAA,-0.243 ± 0.094
20,GCCTGAAC,-0.229 ± 0.023
21,GGGCCACC,-0.173 ± 0.023
22,AAATCTAA,-0.0232 ± 0.061
23,AGTTTTGA,0.042 ± 0.037
24,ACTCTAAT,-0.178 ± 0.017
25,GATCCTCC,0.0423 ± 0.024

row,Sequence,PBM E-score of 8-mer
1,GCAGCAAA,-0.0578 ± 0.11
2,ACTCCAAC,0.143 ± 0.058
3,CGGGGGGC,-0.245 ± 0.062
4,GGGCCCAA,-0.223 ± 0.0063
5,CACGTGTC,0.391 ± 0.014
6,GGGATTGA,-0.147 ± 0.005
7,GTGCCAGA,0.189 ± 0.034
8,CGGTATAC,-0.00336 ± 0.018
9,GGTATGCA,-0.0506 ± 0.046
10,GCCTCACC,0.15 ± 0.1
11,GGCTCGAC,-0.00477 ± 0.004
12,CAGTATGC,-0.0369 ± 0.0089
13,AGTGTAAA,0.338 ± 0.049
14,TATCTCGA,-0.291 ± 0.061
15,CGCTTGGA,-0.222 ± 0.05
16,AGAGGCCT,-0.273 ± 0.023
17,AAGGTTGC,-0.1197 ± 0.00093
18,ATCGATGG,-0.0759 ± 0.07
19,ATCGTAAA,-0.0751 ± 0.0094
20,GGCGTGTA,0.127 ± 0.0038
21,CTGGGTGA,0.0802 ± 0.0031
22,GCAACGCA,0.19 ± 0.071
23,CGGTGTCC,-0.0339 ± 0.0071
24,ACTTTTTA,-0.0533 ± 0.027
25,TGCCCTAA,-0.146 ± 0.066

row,Sequence,PBM E-score of 8-mer
1,AAGATAAC,0.11 ± 0.038
2,ACGTAGCT,-0.194 ± 0.079
3,GCAGCGCC,0.189 ± 0.062
4,GCATAAAC,0.00539 ± 0.094
5,CACTAAGA,0.138 ± 0.048
6,CGGGCCAA,-0.0517 ± 0.019
7,ATCCTGTC,0.00286 ± 0.012
8,ATAGCTCA,-0.223 ± 0.088
9,AACATAGT,-0.154 ± 0.013
10,AGCTGATA,0.00187 ± 0.049
11,AAAAAGAC,-0.0396 ± 0.011
12,TCAGACGA,-0.326 ± 0.012
13,CTAAGTAC,-0.0143 ± 0.042
14,AAGAGGAC,-0.138 ± 0.061
15,CACATCAC,0.2963 ± 0.0014
16,TCACCCGA,0.0108 ± 0.15
17,AAGAGCGG,-0.115 ± 0.056
18,AGAGCAAT,-0.132 ± 0.0051
19,CACCTTTC,0.379 ± 0.024
20,GACATTGC,0.0656 ± 0.018
21,ATATTTAA,-0.252 ± 0.021
22,ATGGTCCC,-0.265 ± 0.047
23,CGGTACTC,-0.261 ± 0.013
24,TACCATCA,0.0248 ± 0.017
25,AGGGGACC,-0.295 ± 0.0086

row,Sequence,PBM E-score of 8-mer
1,CGCTTTGA,-0.182 ± 0.012
2,ATAATAAA,-0.227 ± 0.08
3,AACTCGCG,0.3 ± 0.0049
4,CTAATACC,0.00201 ± 0.056
5,ATTAGTTG,0.0607 ± 0.0065
6,GCCTACTA,-0.0435 ± 0.032
7,ACTAGTCC,-0.2521 ± 0.00028
8,GGGTAAGA,-0.299 ± 0.018
9,GCGCAAGC,0.0816 ± 0.064
10,ACGCTTAA,0.11 ± 0.0092
11,ACACCAGC,0.311 ± 0.019
12,TAGACTCA,-0.216 ± 0.027
13,ACTCGGTC,-0.181 ± 0.035
14,CACAGCAA,0.0267 ± 0.063
15,ACTGCTAT,-0.0695 ± 0.034
16,CGACGTAA,-0.0799 ± 0.063
17,GTCCCCGA,-0.132 ± 0.0025
18,CGACTCAA,-0.0279 ± 0.041
19,ACCGGTAT,-0.0861 ± 0.0031
20,CGGTAAAC,-0.0651 ± 0.0042
21,AAGGTGGA,-0.0733 ± 0.085
22,AATGGCGC,0.105 ± 0.017
23,ATCCTGAA,-0.0378 ± 0.016
24,AGACATCG,-0.308 ± 0.038
25,CGATTACA,0.131 ± 0.02

row,Sequence,PBM E-score of 8-mer
1,ATGCCAAA,-0.0506 ± 0.0037
2,GAAGACAC,0.321 ± 0.033
3,CCGATGGA,-0.155 ± 0.037
4,CGTTTAAA,-0.333 ± 0.038
5,CAGTTTAC,0.0492
6,AGTTTAGC,-0.0805 ± 0.036
7,AATGCACG,-0.0753 ± 0.053
8,GACCTCGC,0.0532 ± 0.0042
9,AAGTCACG,0.2102 ± 0.0021
10,ATAATCCC,-0.178 ± 0.052
11,CAAAATCC,-0.108 ± 0.019
12,ATAACCAA,-0.172 ± 0.0045
13,AGCCACAA,0.0237 ± 0.048
14,TCTAAGCA,0.0691 ± 0.04
15,AATAGTGG,0.0885 ± 0.06
16,AAAAATCT,-0.0505 ± 0.023
17,GCAACCGA,0.156 ± 0.039
18,GGATGTGA,0.195 ± 0.053
19,CGGTCGGC,-0.107 ± 0.12
20,AGAGTTAA,0.138 ± 0.062
21,GAACCCGC,-0.0688 ± 0.024
22,AACGAGGA,-0.0678 ± 0.025
23,GGAATTCC,-0.158 ± 0.041
24,CGAAGTTC,-0.0813 ± 0.075
25,AACTTGCC,0.13 ± 0.052

row,Sequence,PBM E-score of 8-mer
1,AACCCGTG,0.204 ± 0.009
2,GAACTCGA,0.194 ± 0.051
3,CACCAATG,0.179 ± 0.0061
4,AGAAAAGA,0.126 ± 0.029
5,AGAGTCGG,-0.0747 ± 0.009
6,TCTACGCA,-0.0189 ± 0.067
7,GGTCTTTA,-0.125 ± 0.031
8,ATGCGAAC,0.154 ± 0.017
9,ATCGTTAG,-0.0351 ± 0.02
10,AATCGAGA,-0.0925 ± 0.025
11,AACCTGCT,-0.00214 ± 0.0044
12,CCGCGCTC,0.0673 ± 0.066
13,CATTTACG,-0.124 ± 0.057
14,GTTTGTCA,0.188 ± 0.045
15,ATGCCTAC,-0.195 ± 0.028
16,AGAATTAG,-0.00534 ± 0.013
17,TGAAGCAA,-0.173 ± 0.011
18,CCTGACTA,-0.00723 ± 0.035
19,ATAATCTC,-0.0752 ± 0.092
20,AAAAGCAA,-0.0506 ± 0.1
21,ATCCCGAC,0.00396 ± 0.076
22,ATTGGTAG,-0.026 ± 0.036
23,GCCGTAGA,-0.288 ± 0.0058
24,GGTAAGTA,-0.0476 ± 0.043
25,ACAAGACA,0.0373 ± 0.048

row,Sequence,PBM E-score of 8-mer
1,ACCGATAC,-0.129 ± 0.01
2,AGGGGCAG,-0.208 ± 0.027
3,CGTAGTAG,-0.00611 ± 0.019
4,ATTTCGAG,0.0333 ± 0.11
5,ATACGGAG,0.0541 ± 0.066
6,AATAGCAA,0.151 ± 0.019
7,GAATCGCA,0.261 ± 0.0065
8,CGTAGCGC,0.0273 ± 0.026
9,GCTTCTTA,0.0778 ± 0.074
10,ATGCGTTA,0.249 ± 0.023
11,CTAGTTCC,-0.113 ± 0.021
12,CTCCAAAC,-0.0591 ± 0.11
13,CACGTTTA,0.144 ± 0.054
14,CTCACCTA,0.385 ± 0.014
15,GGTGTGCA,0.362 ± 0.026
16,GTGAACCA,0.239 ± 0.015
17,TACTCCTA,-0.0414 ± 0.052
18,AGTAGGTC,-0.0701 ± 0.038
19,AGGTCCCA,0.0282 ± 0.056
20,CCAGGTGC,0.3516 ± 0.00069
21,CGGGGGAA,-0.227 ± 0.043
22,AGTAGGAA,-0.171 ± 0.011
